From PMC4336329 (PLoS ONE, 2015) come the findings set out here.

The campaign covered roughly 310,000 compounds. About 14,000 (4.5%) showed an effect of 50% or more. The effect is printed as a negative number. The list shows a part of the results.
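Further: peak tail current of the secondary pulse compared with the same well before compound.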

Chain of human ether-à-go-go-related gene (hERG) potassium channel (Q12809 whole entry, looked up): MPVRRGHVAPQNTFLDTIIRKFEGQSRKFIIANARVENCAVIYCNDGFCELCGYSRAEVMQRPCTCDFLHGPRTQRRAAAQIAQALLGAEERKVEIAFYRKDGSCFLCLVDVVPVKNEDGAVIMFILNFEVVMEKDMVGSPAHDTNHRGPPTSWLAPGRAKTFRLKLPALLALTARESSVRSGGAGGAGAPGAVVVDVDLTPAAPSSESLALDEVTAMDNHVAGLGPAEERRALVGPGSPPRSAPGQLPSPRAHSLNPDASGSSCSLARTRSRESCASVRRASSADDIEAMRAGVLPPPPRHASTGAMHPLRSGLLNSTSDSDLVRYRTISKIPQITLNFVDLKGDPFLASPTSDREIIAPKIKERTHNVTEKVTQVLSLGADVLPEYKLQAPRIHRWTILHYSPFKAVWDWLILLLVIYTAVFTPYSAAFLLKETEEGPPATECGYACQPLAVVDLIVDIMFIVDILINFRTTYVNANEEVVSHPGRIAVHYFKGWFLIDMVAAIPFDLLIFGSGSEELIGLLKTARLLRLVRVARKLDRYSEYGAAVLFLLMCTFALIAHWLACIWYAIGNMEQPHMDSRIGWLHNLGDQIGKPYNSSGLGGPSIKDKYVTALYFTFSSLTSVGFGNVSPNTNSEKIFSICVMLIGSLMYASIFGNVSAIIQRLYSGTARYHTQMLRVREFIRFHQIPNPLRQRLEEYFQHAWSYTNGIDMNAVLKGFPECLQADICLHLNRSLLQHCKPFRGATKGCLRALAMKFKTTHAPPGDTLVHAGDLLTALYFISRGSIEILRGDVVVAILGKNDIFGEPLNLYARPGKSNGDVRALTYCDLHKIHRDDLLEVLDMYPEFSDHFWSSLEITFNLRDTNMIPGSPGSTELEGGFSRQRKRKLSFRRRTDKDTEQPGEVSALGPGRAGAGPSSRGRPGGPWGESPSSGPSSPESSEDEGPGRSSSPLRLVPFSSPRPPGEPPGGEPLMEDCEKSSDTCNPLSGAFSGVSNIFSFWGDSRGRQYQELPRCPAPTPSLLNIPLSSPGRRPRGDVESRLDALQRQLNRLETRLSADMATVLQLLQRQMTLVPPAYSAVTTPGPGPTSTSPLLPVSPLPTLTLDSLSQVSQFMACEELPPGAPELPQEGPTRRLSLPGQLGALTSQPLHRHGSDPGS

This experiment concerns the target human ether-à-go-go-related gene (hERG) potassium channel (human, UniProt Q12809). As to the kind of experiment: primary screen, population patch clamp on CHO cells stably expressing hERG.
Turning to `COc1ccc(CN(C(=O)c2snc(C(N)=O)c2N)C(C(=O)NC2CCCC2)c2ccc(OC)cc2)cc1` (stereo not drawn), the “hERG current change (%, negative = inhibition) at 10uM” value is recorded as -20.4%. Under `C/C=C/c1ccc(OCC(=O)OCc2csc(Nc3ccc(C)cc3)n2)c(OC)c1` stands 7.71%. The figure for `COc1ccc(CN2C(=O)NC(=O)/C(=C\c3cc(OC)c(OC)c(OC)c3)C2=O)cc1` is 16.6%; for `Cc1ccc(N2CC(O)=C(c3ccccc3)C2=N)cc1` it is -3.56%; for `CCCN(CCC)C(=O)Cc1ccc(F)cc1` it is 15.9%. As to `CC(=O)c1ccc(N2CCN(C(=O)/C=C/c3ccc4ccccc4n3)CC2)cc1`, the “hERG current change (%, negative = inhibition) at 10uM” value was -54.4%. As to `CC(=O)c1cccc(NC(=O)C2CCN(S(=O)(=O)c3ccccc3)CC2)c1`, the “hERG current change (%, negative = inhibition) at 10uM” value is listed as -6.37%. Under `COc1ccc(CN(C)S(=O)(=O)c2nnc(NC(=O)c3cccc(OC)c3)s2)cc1` stands 20%.

Take `Cc1cc(C(=O)Nc2ccc3c(c2)OCO3)no1`: the “hERG current change (%, negative = inhibition) at 10uM” value is given as 26.7%. The figure for `C=CCc1ccc(OCC(O)CN2CCCCC2)c(OC)c1` (stereo not drawn) is -54.8%; for `O=C(CN1C(=O)CCS(=O)(=O)c2ccccc21)NCCc1ccccc1` it is 10.3%.

As to `O=C(/C=C/c1ccc(Cl)cc1Cl)N(Cc1ccccc1)C1CCS(=O)(=O)C1` (stereo not drawn), the “hERG current change (%, negative = inhibition) at 10uM” value is -20.8%. Under `O=C(/C=C/Nc1ccccc1Br)c1ccccn1` stands -2.51%; under `CC(=O)Nc1ccc(N=Cc2nc(-c3ccc(C)cc3)oc2O)cc1`, 2.43%. Under `CCOc1ccc(NC(=O)CN(C)C(=O)c2csc3c2CCCC3)cc1OCC` stands -19.4%; under `Cn1ccnc1C(=O)c1cc(SCC(=O)NCc2ccccc2)nc2ccccc12`, -12.1%. With `O=C(NNC(=O)C1CCN(c2ncccn2)CC1)c1ccncc1`, the “hERG current change (%, negative = inhibition) at 10uM” value was 21%.

As to `CC(=O)Nc1cccc(NC(=O)c2cc([N+](=O)[O-])ccc2N2CCCCC2)c1`, the “hERG current change (%, negative = inhibition) at 10uM” value is -69.3%. As to `O=C(c1cnccn1)N(Cc1cccs1)C1(C(=O)NC2CCCCC2)CCCCC1`, the “hERG current change (%, negative = inhibition) at 10uM” value is -16.5%. Under `C/C(=N\NC(=O)c1cccc(N/N=C(\C)c2ccccc2)c1)c1ccccc1` stands -15.5%; under `COC(=O)c1ccc2[nH]c([C@H](C)O)c([C@H](C)O)c2c1`, 5.2%; under `CCS(=O)(=O)c1ccc(O)c(NC(=O)NC2CCCCC2)c1`, 16.3%.

As for `CC(CN1CCOCC1)C(=O)O.Cl` (stereo not drawn), the “hERG current change (%, negative = inhibition) at 10uM” value is recorded as -15.6%. The figure for `CCOC(=O)CN1C(=O)/C(=C/c2ccc(Cl)cc2)Oc2ccccc21` is 2.31%.
